Molecules are shown by their SMILES.

For this test, the system named is Pseudomonas syringae pv. Tomato avrrpm1 DC3000. The test is described as follows: Challenge of sodium dithionite treated plants with Pseudomonas syringae, bacterial count. Conditions: distal part challenged with 1×10^8 CFU/ml, 48 hpi, vs control plants. How it is done:
Since salicylic acid (SA) is important in the induction of systemic acquired resistance in plants, the distal leaf samples were collected for SA estimation at 6h post-sodium dithionite treatment. […] After observing higher SA accumulation in the distal parts of sodium dithionite treated plants, its efficiency against pathogen spread was checked. The sodium dithionite treated plants were challenged with Pseudomonas syringae pv. Tomato avrrpm1 DC3000 (1×10^8 CFU/ml) to the distal part of the plants and observed phenotype of disease development till 48 hours post infection (hpi) (FIG. 8). […] FIG. 8A depicts the SA levels from distal leaves in response to sodium dithionite treatment. FIG. 8B depicts the bacterial growth in response to sodium dithionite treatment.

As for `O=S([O-])S(=O)[O-].[Na+].[Na+]` [sodium dithionite], the bacterial count entry is reported as “Significant reduction in bacterial count”.

Values taken from patent US20230404081A1, “A FORMULATION AND A METHOD FOR INDUCING DEFENSE RESPONSE IN PLANTS” (NATIONAL INSTITUTE OF PLANT GENOME RESEARCH, priority 2020, published 2023).
